This is an account of results in article PMC7933254.

The chains behind the UniProt entries cited, without tags or fusion partners. Where a name states a change or a piece, a line headed by the entry shows the natural chain unless it says otherwise. A line that says so, or that is headed by a name, gives the form on record, which may keep a tag or linker. Residues count along the entry.
UniProt P61586: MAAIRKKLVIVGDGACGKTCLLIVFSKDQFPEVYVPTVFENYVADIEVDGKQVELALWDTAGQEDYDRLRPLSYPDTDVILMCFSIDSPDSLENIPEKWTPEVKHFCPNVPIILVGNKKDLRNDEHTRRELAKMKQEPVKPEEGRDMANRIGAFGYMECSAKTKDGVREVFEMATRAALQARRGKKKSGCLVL
UniProt Q9BY11: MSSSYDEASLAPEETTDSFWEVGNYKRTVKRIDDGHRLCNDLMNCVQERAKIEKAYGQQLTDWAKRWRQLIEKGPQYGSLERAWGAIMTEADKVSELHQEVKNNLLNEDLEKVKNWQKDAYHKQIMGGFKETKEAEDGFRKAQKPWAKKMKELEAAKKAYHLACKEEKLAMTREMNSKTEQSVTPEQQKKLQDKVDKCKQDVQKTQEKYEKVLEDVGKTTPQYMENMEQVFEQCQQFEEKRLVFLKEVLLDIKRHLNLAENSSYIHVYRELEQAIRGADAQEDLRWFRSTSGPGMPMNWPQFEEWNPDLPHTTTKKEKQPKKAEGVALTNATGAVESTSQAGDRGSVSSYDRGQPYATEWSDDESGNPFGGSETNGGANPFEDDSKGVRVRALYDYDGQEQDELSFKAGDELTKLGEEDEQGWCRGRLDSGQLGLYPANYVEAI
UniProt P60953: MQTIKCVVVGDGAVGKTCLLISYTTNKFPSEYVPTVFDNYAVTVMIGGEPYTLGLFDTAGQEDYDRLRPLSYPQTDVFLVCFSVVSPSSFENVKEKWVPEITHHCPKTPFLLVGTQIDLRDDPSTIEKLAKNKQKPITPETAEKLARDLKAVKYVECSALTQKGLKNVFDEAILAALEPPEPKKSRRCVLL
UniProt Q9HBA0: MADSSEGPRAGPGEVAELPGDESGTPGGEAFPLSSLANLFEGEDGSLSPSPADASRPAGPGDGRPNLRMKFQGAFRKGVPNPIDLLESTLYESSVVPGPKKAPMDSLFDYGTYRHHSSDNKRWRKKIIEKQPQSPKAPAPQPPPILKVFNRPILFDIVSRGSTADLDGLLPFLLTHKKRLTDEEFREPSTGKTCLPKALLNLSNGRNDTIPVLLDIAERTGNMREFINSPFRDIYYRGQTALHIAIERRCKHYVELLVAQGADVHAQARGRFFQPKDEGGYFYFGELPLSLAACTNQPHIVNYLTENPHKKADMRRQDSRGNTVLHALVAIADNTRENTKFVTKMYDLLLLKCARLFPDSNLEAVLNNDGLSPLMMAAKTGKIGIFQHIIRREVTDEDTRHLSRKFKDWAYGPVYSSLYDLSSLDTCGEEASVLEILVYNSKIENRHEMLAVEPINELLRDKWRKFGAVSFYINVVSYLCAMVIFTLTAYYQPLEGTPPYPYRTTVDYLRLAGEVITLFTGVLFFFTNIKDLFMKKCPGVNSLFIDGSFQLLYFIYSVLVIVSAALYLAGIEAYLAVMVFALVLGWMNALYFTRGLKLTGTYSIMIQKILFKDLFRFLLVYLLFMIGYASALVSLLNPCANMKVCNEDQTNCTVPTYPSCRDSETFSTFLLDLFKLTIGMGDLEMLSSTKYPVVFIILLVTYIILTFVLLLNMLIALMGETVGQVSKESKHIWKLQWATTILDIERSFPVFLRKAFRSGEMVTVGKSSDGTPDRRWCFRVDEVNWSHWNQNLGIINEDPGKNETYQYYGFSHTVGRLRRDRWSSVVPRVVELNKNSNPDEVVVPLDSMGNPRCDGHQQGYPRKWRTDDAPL
recombinant human TRPV4 ankyrin repeat domain, wild type (hV4-ARD-WT): residues 148-397 of Q9HBA0
TRPV4 121AAWAA125 (PI(4,5)P2 binding domain mutant) (Q9HBA0, form named): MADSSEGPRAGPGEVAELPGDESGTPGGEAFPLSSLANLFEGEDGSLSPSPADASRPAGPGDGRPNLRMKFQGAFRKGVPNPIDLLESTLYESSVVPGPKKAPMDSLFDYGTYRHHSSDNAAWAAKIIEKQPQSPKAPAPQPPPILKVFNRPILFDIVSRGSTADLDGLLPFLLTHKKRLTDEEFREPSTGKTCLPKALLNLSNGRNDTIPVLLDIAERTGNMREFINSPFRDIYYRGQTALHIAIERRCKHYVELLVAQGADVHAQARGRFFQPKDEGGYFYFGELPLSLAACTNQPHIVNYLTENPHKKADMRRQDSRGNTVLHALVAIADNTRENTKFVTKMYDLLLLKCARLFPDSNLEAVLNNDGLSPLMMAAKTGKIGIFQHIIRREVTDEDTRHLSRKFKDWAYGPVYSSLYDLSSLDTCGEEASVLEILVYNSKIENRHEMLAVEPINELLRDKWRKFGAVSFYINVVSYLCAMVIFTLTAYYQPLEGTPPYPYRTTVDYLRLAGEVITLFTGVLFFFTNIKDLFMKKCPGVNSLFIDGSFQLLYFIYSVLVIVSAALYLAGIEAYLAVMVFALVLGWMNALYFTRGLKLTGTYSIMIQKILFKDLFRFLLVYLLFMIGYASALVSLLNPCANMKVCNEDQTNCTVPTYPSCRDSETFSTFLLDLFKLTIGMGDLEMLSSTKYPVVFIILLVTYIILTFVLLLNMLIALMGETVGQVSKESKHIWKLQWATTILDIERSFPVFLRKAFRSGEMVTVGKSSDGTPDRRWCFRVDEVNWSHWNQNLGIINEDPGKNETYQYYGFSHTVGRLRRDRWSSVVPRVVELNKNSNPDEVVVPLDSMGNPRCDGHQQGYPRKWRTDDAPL
UniProt Q9EPK8: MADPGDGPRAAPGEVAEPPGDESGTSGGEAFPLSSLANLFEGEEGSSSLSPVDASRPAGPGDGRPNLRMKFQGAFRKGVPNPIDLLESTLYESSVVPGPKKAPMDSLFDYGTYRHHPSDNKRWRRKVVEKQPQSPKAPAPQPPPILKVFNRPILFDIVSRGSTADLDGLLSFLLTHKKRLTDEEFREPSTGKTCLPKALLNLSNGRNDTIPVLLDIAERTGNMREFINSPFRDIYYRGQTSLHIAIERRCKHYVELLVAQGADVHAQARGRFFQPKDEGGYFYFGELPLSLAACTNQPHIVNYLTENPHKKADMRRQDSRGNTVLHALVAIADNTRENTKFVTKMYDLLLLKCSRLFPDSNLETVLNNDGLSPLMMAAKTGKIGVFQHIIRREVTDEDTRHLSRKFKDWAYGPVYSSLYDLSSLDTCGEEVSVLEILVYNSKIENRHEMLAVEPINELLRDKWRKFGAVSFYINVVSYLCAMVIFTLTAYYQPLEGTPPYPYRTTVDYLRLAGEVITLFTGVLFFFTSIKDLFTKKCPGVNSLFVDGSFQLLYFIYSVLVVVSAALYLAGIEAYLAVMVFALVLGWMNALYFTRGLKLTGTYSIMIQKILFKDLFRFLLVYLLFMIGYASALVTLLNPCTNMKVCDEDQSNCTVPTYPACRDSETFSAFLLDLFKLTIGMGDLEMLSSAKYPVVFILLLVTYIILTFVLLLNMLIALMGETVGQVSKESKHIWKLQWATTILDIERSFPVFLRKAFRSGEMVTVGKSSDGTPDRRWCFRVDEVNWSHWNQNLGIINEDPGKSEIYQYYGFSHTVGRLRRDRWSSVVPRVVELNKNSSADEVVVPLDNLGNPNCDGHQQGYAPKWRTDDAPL
UniProt Q9QUI0: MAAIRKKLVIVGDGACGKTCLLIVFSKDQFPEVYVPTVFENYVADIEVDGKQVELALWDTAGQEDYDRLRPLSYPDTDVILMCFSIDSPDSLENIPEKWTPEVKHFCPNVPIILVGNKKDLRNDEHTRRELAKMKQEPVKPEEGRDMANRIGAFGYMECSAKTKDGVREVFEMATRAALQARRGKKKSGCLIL

The target of assay [1] is WT RhoA-GFP, expressed in MN-1 cells (UniProt P61586). The assay can be described thus: co-IP; MN-1 cells transfected with tagged TRPV4 and tagged GTPase; IP Lysis Buffer (25 mM Tris-HCl pH 7.4, 150 mM NaCl, 1% NP-40, 1 mM EDTA, 5% glycerol, with or without 10 mM MgCl2); anti-GFP or anti-FLAG antibody on Protein G Dynabeads, 1 h, 4 °C; some panels with HC067 (0.5 µM), excess GDP or GTPγS.

The next assay deals with PACSIN1-Myc (UniProt Q9BY11). The assay can be described thus: co-IP; co-immunoprecipitations shown only in supplementary figures (2b, 2e, 3f, 3g); transfected cells, cell line and antibodies not told in the main text.
For assay [2], the target named is WT RhoA-GFP, expressed in MN-1 cells (UniProt P61586). In words: co-IP; MN-1 cells transfected with TRPV4-FLAG and TRPV4-GFP constructs (WT or neuropathy mutant) as well as RhoA-GFP; immunoprecipitated TRPV4-FLAG quantified by densitometry.
Assay [3] concerns the target T19N RhoA-GFP, expressed in MN-1 cells (UniProt P61586). The assay can be described thus: co-IP; MN-1 cells transfected with tagged TRPV4 and tagged GTPase; IP Lysis Buffer (25 mM Tris-HCl pH 7.4, 150 mM NaCl, 1% NP-40, 1 mM EDTA, 5% glycerol, with or without 10 mM MgCl2); anti-GFP or anti-FLAG antibody on Protein G Dynabeads, 1 h, 4 °C; some panels with HC067 (0.5 µM), excess GDP or GTPγS.

Assay [4] concerns the target Q63L RhoA-GFP, expressed in MN-1 cells (UniProt P61586). Described as above.
The target in another assay is Cdc42-Myc (UniProt P60953). The assay is described as above.
Assay [5] deals with E47A RhoA-GFP, expressed in MN-1 cells (UniProt P61586). The assay is described as above.
Assay [6] concerns the target E54A RhoA-GFP, expressed in MN-1 cells (UniProt P61586). The assay is described as above.
Assay [7] concerns the target R269C TRPV4-FLAG, stably and inducibly expressed in T-Rex-TRPV4^R269C cells (human) (UniProt Q9HBA0). The assay can be described thus: co-IP; T-Rex-TRPV4 cells induced with tetracycline (15 ng/ml); anti-FLAG immunoprecipitation, endogenous RhoA detected; some panels with HC067, hypotonic saline (5 min) or GSK101.
The target in assay [8] is TRPV4-FLAG (wild type), stably and inducibly expressed in T-Rex-TRPV4^WT cells (human) (UniProt Q9HBA0). The description is as above.
For assay [9], the target named is endogenous TRPV4 of mouse choroid plexus (mouse (endogenous in choroid plexus)) (UniProt Q9EPK8). In words: co-IP; mouse choroid plexus lysate; anti-TRPV4 polyclonal antibody (Abcam ab39260) or nonspecific rabbit IgG, 24 h, 4 °C.
Assay [10] has as its target WT RhoA-GFP, expressed in MN-1 cells (UniProt P61586). In words: co-IP; co-immunoprecipitations shown only in supplementary figures (2b, 2e, 3f, 3g); transfected cells, cell line and antibodies not told in the main text.
For assay [11], the target named is recombinant human TRPV4 ankyrin repeat domain, wild type (hV4-ARD-WT) (human) (UniProt Q9HBA0). In words: pull-down; purified hV4-ARD-His bound to NiNTA beads, incubated with lysate from cells expressing RhoA-GFP; only the target purified.
The target in assay [12] is RhoA-Q63L-Myc, immunopurified from HEK293T cells (UniProt P61586). The assay can be described thus: pull-down; RhoA-WT-Myc or RhoA-Q63L-Myc immunopurified from HEK293T cells, incubated with 10 µg purified hV4-NTD; both purified.

No constants are given. Whether binding was seen depends on the method and setting. For part of these data: In cells and extracts the contact can be indirect. Some results given as binding are weak or reduced against the parent protein; the word gives no strength.

In the case of “TRPV4-FLAG M680K with skeletal dysplasia mutation I331F, expressed in MN-1 cells (from UniProt Q9HBA0 1-871)”, in assay [1], the binding entry is on record as “binds”.

“TRPV4-R237L-FLAG, expressed in MN-1 cells (from UniProt Q9HBA0 1-871)”: in the assay with PACSIN1-Myc, the binding entry is “binds”.

On to “TRPV4-FLAG (wild type), expressed in MN-1 cells (from UniProt Q9HBA0 1-871)”, for which the binding result in the assay with PACSIN1-Myc is “binds”; in assay [2] it was “binds”; in assay [3] it was “binds”; in assay [4] it was “no binding”; in [1], “binds”; in the assay with Cdc42-Myc, “no binding”. Moreover, the binding entry was “binds” in assay [5] and “no binding” in assay [6].

For “endogenous RhoA of HEK293T / T-Rex-TRPV4 cells (from UniProt P61586 1-193)”, the values for the binding entry in [7] and in assay [8] were “no binding” and “binds”, respectively.

“TRPV4-FLAG M680K with skeletal dysplasia mutation D333G, expressed in MN-1 cells (from UniProt Q9HBA0 1-871)”: in assay [1], the binding result is recorded as “binds”.

Consider “TRPV4-D333G-FLAG, expressed in MN-1 cells (from UniProt Q9HBA0 1-871)”, for which, in [1], the binding result is on record as “binds”.

Turning to “endogenous RhoA of mouse choroid plexus (from UniProt Q9QUI0 1-193)”, in assay [9], the binding entry is recorded as “binds”.

For the substance “TRPV4-M680K-FLAG, expressed in MN-1 cells (from UniProt Q9HBA0 1-871)”, in assay [1], the binding result is “binds”.

Consider “TRPV4 121AAWAA125 (PI(4,5)P2 binding domain mutant) (from UniProt Q9HBA0 1-871)”, for which the binding entry in assay [10] is listed as “binds”.

Take “TRPV4-I331F-FLAG, expressed in MN-1 cells (from UniProt Q9HBA0 1-871)”: in assay [1], the binding result is reported as “binds”.

On to “TRPV4 P142A/P143L (proline-rich domain mutant) (from UniProt Q9HBA0 1-871)”, for which the binding entry in assay [10] is reported as “binds”.

In the case of “RhoA-GFP in lysate of cells expressing RhoA-GFP (cell line not stated) (from UniProt P61586 1-193)”, the binding entry in [11] is given as “binds”.

Turning to “recombinant human TRPV4 N-terminal domain (hV4-NTD) (from UniProt Q9HBA0 2-397) (domain or fragment)”, the binding entry in assay [12] is listed as “no binding (tested: 10 µg purified hV4-NTD)”.
